Article doi:10.1101/2025.06.17.660062 (bioRxiv, 2025)

Target: mCherry-RZZ (ROD-Zwilch-ZW10 complex, wild type) (UniProt P50748 1-2209; Q9H900 1-591; O43264 1-779)
Assay: pull-down

UniProt P50748, sequence (P50748 whole entry, chain 1 of 3): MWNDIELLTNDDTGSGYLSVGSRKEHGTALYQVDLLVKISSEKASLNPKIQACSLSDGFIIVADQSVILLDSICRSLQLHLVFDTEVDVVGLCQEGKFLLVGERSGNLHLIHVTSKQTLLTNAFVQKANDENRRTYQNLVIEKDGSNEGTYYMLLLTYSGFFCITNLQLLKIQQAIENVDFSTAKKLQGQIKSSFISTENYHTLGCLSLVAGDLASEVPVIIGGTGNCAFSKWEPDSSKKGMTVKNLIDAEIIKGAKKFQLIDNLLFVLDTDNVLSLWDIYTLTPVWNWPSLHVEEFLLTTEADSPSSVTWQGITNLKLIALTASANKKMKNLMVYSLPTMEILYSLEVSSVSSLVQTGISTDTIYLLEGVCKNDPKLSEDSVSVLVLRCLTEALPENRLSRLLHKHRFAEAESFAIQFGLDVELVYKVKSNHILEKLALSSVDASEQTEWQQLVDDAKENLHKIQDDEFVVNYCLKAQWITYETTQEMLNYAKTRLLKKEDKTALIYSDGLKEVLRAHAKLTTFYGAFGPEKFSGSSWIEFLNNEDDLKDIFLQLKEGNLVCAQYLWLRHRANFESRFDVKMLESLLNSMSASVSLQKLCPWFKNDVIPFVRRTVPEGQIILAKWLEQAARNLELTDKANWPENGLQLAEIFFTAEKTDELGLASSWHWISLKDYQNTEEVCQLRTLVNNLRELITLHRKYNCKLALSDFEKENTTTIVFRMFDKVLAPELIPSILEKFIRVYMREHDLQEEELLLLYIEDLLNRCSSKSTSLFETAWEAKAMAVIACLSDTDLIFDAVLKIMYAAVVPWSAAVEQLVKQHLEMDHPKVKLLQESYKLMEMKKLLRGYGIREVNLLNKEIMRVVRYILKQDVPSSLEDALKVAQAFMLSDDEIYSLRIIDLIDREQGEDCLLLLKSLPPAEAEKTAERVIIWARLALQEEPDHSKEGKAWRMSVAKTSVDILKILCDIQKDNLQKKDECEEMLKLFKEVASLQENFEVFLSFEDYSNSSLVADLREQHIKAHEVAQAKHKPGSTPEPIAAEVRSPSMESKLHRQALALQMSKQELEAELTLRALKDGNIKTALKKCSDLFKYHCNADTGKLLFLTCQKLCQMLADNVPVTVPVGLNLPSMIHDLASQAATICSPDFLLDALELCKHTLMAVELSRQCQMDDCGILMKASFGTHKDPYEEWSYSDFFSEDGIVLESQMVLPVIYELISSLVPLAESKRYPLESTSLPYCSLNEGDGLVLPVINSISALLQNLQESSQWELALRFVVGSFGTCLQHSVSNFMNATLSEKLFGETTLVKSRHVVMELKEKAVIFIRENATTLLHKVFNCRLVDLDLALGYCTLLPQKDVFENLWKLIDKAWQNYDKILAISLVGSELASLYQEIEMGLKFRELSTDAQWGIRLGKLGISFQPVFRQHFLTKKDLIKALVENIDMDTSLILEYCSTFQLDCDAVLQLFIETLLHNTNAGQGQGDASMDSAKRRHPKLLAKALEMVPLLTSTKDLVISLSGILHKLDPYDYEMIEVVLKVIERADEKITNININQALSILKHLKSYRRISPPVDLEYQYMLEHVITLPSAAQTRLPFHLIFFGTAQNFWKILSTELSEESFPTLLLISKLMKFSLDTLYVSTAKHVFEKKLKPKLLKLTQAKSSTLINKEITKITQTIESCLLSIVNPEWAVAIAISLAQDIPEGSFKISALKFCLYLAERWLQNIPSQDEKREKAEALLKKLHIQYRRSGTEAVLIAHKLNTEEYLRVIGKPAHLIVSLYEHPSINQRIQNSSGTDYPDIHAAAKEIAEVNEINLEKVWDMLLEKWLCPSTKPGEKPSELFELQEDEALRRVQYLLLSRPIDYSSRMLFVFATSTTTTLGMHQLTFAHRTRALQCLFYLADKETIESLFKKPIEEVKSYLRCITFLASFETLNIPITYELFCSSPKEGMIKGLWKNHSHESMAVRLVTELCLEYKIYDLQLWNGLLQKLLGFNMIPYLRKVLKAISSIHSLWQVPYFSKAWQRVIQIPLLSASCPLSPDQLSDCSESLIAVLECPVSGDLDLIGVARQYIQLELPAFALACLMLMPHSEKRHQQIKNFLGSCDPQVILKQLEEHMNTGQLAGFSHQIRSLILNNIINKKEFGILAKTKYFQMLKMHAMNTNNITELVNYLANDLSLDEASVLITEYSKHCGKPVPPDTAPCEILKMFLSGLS
UniProt P50748, sequence (Q9H900 whole entry, chain 2 of 3, further chain): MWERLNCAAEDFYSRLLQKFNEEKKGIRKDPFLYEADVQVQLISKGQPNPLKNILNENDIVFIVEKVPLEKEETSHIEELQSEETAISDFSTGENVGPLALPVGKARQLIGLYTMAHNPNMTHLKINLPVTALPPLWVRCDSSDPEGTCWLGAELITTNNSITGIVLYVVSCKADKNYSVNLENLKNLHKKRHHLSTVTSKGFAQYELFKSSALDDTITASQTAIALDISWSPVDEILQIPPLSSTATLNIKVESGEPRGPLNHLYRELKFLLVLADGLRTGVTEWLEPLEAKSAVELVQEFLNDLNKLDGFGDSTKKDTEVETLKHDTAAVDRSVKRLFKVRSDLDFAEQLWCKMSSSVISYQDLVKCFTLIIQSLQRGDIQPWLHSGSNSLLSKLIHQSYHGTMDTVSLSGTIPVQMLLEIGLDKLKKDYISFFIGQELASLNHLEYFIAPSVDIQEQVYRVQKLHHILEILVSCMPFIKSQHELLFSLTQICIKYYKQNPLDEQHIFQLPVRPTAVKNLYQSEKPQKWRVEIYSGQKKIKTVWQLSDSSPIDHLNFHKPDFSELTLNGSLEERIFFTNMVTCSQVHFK
UniProt P50748, sequence (O43264 whole entry, chain 3 of 3, further chain): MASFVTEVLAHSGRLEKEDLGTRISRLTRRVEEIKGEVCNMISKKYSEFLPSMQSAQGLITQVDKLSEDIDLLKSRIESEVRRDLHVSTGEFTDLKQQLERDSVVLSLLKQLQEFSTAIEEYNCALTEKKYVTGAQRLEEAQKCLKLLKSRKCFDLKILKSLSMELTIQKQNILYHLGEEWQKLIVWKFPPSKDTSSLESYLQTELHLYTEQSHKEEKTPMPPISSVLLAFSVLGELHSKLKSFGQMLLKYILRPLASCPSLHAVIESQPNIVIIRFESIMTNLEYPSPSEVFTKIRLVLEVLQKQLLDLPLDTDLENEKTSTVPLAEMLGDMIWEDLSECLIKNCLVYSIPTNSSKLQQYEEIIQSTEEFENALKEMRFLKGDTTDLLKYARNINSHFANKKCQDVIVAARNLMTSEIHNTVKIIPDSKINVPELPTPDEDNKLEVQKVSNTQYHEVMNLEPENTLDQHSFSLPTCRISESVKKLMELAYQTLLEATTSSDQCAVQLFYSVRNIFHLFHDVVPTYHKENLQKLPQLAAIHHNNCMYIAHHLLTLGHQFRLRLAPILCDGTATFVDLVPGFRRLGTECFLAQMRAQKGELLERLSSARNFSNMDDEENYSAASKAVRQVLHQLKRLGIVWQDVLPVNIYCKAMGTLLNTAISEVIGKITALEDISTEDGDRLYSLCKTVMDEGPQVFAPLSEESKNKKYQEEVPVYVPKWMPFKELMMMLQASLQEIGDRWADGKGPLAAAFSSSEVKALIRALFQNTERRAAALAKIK

B1: MBP-MAD1:MAD2, full length (complex)
chain 1: MEDLGENTMVLSTLRSLNNFISQRVEGGSGLDISTSAPGSLQMQYQQSMQLEERAEQIRSKSHLIQVEREKMQMELSHKRARVELERAASTSARNYEREVDRNQELLTRIRQLQEREAGAEEKMQEQLERNRQCQQNLDAASKRLREKEDSLAQAGETINALKGRISELQWSVMDQEMRVKRLESEKQELQEQLDLQHKKCQEANQKIQELQASQEARADHEQQIKDLEQKLSLQEQDAAIVKNMKSELVRLPRLERELKQLREESAHLREMRETNGLLQEELEGLQRKLGRQEKMQETLVGLELENERLLAKLQSWERLDQTMGLSIRTPEDLSRFVVELQQRELALKDKNSAVTSSARGLEKARQQLQEELRQVSGQLLEERKKRETHEALARRLQKRVLLLTKERDGMRAILGSYDSELTPAEYSPQLTRRMREAEDMVQKVHSHSAEMEAQLSQALEELGGQKQRADMLEMELKMLKSQSSSAEQSFLFSREEADTLRLKVEELEGERSRLEEEKRMLEAQLERRALQGDYDQSRTKVLHMSLNPTSVARQRLREDHSQLQAECERLRGLLRAMERGGTVPADLEAAAASLPSSKEVAELKKQVESAELKNQRLKEVFQTKIQEFRKACYTLTGYQIDITTENQYRLTSLYAEHPGDCLIFKATSPSGSKMQLLETEFSHTVGELIEVHLRRQDSIPAFLSSLTLELFSRQTVA
chain 2: [in this place about 200 residues]
- binding result: binds
